Results reported in PubChem BioAssay AID488969 (Vanderbilt High Throughput Screening Facility, 2010).
Over roughly 110,000 compounds, “z-score” has its median near -0.1; the highest 2% begin near 2. The list shows a part of the results.

molecular target: Metabotropic glutamate receptor 8 (Rattus norvegicus) (UniProt P70579); experiment: mGluR8 Gi/Go-coupled signaling modulation – cell-based, rat, thallium flux, HTS, primary screen (AID 488969); conditions: HEK293 rat mGluR8, GIRK (G protein-gated inwardly rectifying potassium channel) thallium flux, FluoZin2; at 10 µM; stronger effect = higher value; submaximal glutamate (EC20) added with thallium
Sequence of UniProt P70579 (P70579 whole entry, looked up): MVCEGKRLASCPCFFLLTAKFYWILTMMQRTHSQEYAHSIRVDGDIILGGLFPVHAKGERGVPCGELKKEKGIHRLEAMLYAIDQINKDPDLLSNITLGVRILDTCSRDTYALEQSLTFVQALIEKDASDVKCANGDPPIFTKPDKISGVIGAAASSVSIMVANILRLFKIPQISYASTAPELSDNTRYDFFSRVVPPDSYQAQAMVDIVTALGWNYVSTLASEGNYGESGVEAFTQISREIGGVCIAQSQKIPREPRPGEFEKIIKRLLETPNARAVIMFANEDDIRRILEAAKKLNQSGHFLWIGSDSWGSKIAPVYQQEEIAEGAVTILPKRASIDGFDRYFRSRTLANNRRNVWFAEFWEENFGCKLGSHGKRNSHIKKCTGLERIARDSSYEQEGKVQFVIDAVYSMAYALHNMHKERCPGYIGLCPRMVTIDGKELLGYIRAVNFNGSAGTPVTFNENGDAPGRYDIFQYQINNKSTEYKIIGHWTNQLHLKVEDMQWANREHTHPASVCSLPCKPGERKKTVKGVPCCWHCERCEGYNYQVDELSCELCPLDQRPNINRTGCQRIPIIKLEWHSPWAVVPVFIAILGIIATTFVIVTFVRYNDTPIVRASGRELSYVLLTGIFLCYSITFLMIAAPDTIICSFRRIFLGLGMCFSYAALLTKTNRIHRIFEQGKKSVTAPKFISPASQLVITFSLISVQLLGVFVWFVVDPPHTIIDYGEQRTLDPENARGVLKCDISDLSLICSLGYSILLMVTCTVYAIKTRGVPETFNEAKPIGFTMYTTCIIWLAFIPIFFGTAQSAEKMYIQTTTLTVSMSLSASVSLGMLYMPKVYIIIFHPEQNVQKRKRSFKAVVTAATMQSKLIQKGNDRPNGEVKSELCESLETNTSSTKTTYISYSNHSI

Compound	z-score
CSc1ccccc1NC(=O)CN(C1CCCCC1)S(C)(=O)=O	0.0928
O=C1CC(c2cccc(Cl)c2)c2cc3c(cc2N1)CCC3 (configuration not stated)	-0.438
CCOC(=O)c1cc(OC(=O)c2ccccc2)n(-c2ccccc2)n1	-1.99
COc1ccc2nc(C)cc(SCC(=O)Nc3c(C)cccc3C)c2c1	0.37
COc1ccc(/C=N/NC(=O)CNC(=O)c2cccs2)cc1	-0.144
O=C1/C(=C/c2ccc(N3CCOCC3)o2)SC(=Nc2ccccc2)N1CCc1c[nH]c2ccccc12	-2
C=CCc1ccc(OCCCOc2ccc(C)cc2OC)c(OC)c1	1.11
NC(=O)CC(NC(=S)NCc1ccccc1)C(=O)O (configuration not stated)	0.23
FC(F)Sc1nc(-c2ccccc2)c(-c2ccccc2)n1C(F)F	1.41
C=CCN1C(=Nc2cccnc2)SCC1(O)c1ccc(C)cc1 (configuration not stated)	2.38
CCOc1ccc(-n2ccnc2SCC(=O)Nc2nnc(C)s2)cc1	0.15
CCOC(=O)c1cccnc1SCC(=O)N(C)c1ccccc1	0.069
CCOC(=O)C1=C(O)C(=O)N(c2ccc(S(N)(=O)=O)cc2)C1c1ccc(Cl)cc1 (configuration not stated)	-0.45
CN(C)C(=O)CSc1nc2ccccc2c(=O)[nH]1	0.00591
COc1ccccc1N1CCN(C(=O)CSc2nnc(NC(=O)C3CC3)s2)CC1	0.008
Cc1ccc(CNC(=O)C2CCCN(S(=O)(=O)c3cnc[nH]3)C2)cc1 (configuration not stated)	-0.0923
CN(C)/C=C/C(=O)c1ccc(Cl)cc1	0.00641
CCn1c(SC(C)C(=O)NC2CCCc3ccccc32)nnc1-c1cccs1 (configuration not stated)	0.594
Cc1cc(OC(=O)c2ccccc2Cl)cc(=O)n1C	-0.733

Compound	z-score
O=C(NC(=S)NCCN1CCOCC1)c1ccc(F)cc1	-0.084
COc1ccc(N(C(=O)c2ccco2)C(C(=O)NC2CCCC2)c2cccs2)cc1OC (configuration not stated)	-0.111
Cc1ccc([N+](=O)[O-])cc1NC(=O)CN(C1CCCCC1)S(=O)(=O)c1ccc(Cl)cc1	-0.272
Cc1ccc(CNC(=O)C2CCN(S(=O)(=O)c3c(C)noc3/C=C/c3ccco3)CC2)cc1	-0.501
CC(=O)c1c(C)n(C)c2ccc(O)cc12	0.14
CC1CCCN(c2nc3c(c(=O)n(C)c(=O)n3C)n2CCSc2nc3ccccc3s2)C1 (configuration not stated)	-0.497
Cc1ccc(C)c(NC(=S)NCc2cccs2)c1	0.0229
COC(=O)c1nn(-c2ccccc2)c(Cl)c1/C=N/OCc1ccc(Cl)cc1Cl	-0.0495
O=C(CN(Cc1cccs1)C(=O)CSc1nnc(COc2ccccc2)o1)NC1CCCCC1	-0.028
COC(=O)c1nnn(CC(=O)Nc2cccc(OC)c2)c1C(=O)OC	-0.378
Cc1ccc(C2/C(=C(/O)c3cnn(-c4ccccc4)c3C)C(=O)C(=O)N2CCN2CCOCC2)o1 (configuration not stated)	-0.0577
CCCCNC(=O)/C(=C/c1ccccc1)NC(C)=O	-0.217
C=CCNC(=O)N[C@@H](CCSC)C(=O)OC	-0.211
CCCCC(c1nnnn1CCOC)N1CCN(C)CC1 (configuration not stated)	0.232
CCc1ccc(NS(=O)(=O)c2ccc3[nH]cc(C(=O)N(C)Cc4ccco4)c(=O)c3c2)cc1	-0.15
COc1cccc(CNC(=O)CCn2c(=O)oc3ccccc32)c1	-0.177
COc1cc(OC)cc(C(=O)N2CCC(N3CCCCCC3)CC2)c1	1.27
Cc1cc(/C=N/n2cnnc2)c(C)n1-c1ccc(Cl)cc1Cl	-0.06
O=S(=O)(Nc1nc2ccccc2nc1N1CCN(c2ccccn2)CC1)c1ccc(Cl)cc1	-1.76

Compound	z-score
Cc1ccc(C(NC(=O)N2CCOCC2)C(Cl)Cl)cc1F (configuration not stated)	-0.2
CCC(=O)N1CCc2cc(Br)cc(S(=O)(=O)CCC(=O)NCCc3ccccc3)c21	-1.43
CCc1ccc(-c2nc(CN3CCC(C(=O)NCc4ccccc4OC)CC3)c(C)o2)cc1	0.683
N#CCC(=N)N1CCN(c2ccccc2Cl)CC1	0.229
CCCCCOc1ccc(Cl)cc1CN1CCOCC1	-0.125
CCOC(=O)N1CCN(C(=O)CCn2nc(-c3ccccc3)ccc2=O)CC1	-1.44
c1ccc(NC2=NCCCCS2)cc1	0.19
NC(=O)c1cc2cc(Cl)ccc2oc1=O	-0.214
COc1ccc(-n2nc(C(=O)NCC(=O)NCc3ccco3)c3ccccc3c2=O)cc1Cl	-0.689
O=C(c1c[nH]c2ccccc12)C(O)C(c1ccccc1)N1CCOCC1 (configuration not stated)	-0.674
Cc1ccc(-n2c(SCC(=O)NCc3ccc4c(c3)OCO4)nnc2-c2cccnc2)c(C)c1	-0.0809
C=CCSc1nnc(NC(=O)CSc2nnc(C)s2)s1	-0.117
CC(C)(C)NC(=O)c1ccc2c(c1)C1C3CCC(C3)C1C(c1ccccc1)N2 (configuration not stated)	1.96
CCc1ccc(C(C)NC(=O)C2(C)CC2(Br)Br)cc1 (configuration not stated)	0.309
COc1ccc(NC(=O)N2CCCC(c3nc(-c4ccc(C(C)C)cc4)no3)C2)cc1 (configuration not stated)	0.9
COC(=O)c1ccc(CSc2ccc3nnc(-c4ccccn4)n3n2)o1	-0.907
CC(=O)NNc1ncnc2ccccc12	0.156
Cc1cc(SCC(=O)Nc2ccccc2)nc(C)n1	0.42
COc1ccc(/C(O)=C2\C(=O)C(=O)N(CCN(C)C)C2c2cccc(OC)c2OC)cc1Cl (configuration not stated)	-0.0486
